In PubChem BioAssay (Tox21):
Several values for one entry are separate records, joined by “and”; a condition that tells them apart may be missing. Equal values may be shown once. The shares of active, inactive and inconclusive entries below differ from those in the screen. Where a call stands in place of a potency, no number is given. For some of these results: A potency beside an inconclusive call is a rough fit, not a confirmed value. Activity calls are given as the source filed them. Unless noted, the call rests on the fitted dose curve.

Tests used:
[1] = qHTS assay to identify small molecule agonists of the endoplasmic reticulum stress response signaling pathway (AID 1159516; active means well fitted activation curve with a large enough effect in the signal ratio in the repeat runs, not every such curve was filed as active; inconclusive means weak or mixed curves, or effect the other way; the % refers to the signal ratio; further: potency means the concentration at half of the fitted maximal effect); settings: ESRE-bla HeLa, ER stress beta-lactamase reporter, 5 h; activation: at 61 µM (top of the series) unless noted
Outline: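 ER stress element reporter (bla) in HeLa. 1,500 cells/well, overnight attachment; 5 hr compound; 2 hr RT substrate; dual-emission fluorescence.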

[2] = molecular target: Retinoic acid receptor RXR-alpha (Homo sapiens) (UniProt P19793); assay: qHTS assay to identify small molecule agonists of the RXR signaling pathway (AID 1159527); settings: HEK293T RXRa-UAS-bla, beta-lactamase ratio, 16 h; activation: at 76.8 µM (top of the series) unless noted; further: nearly all actives have a fitted effect of over 35% in size; further: potency means the concentration at half of the fitted maximal effect
Sequence of UniProt P19793 (P19793 whole entry, looked up): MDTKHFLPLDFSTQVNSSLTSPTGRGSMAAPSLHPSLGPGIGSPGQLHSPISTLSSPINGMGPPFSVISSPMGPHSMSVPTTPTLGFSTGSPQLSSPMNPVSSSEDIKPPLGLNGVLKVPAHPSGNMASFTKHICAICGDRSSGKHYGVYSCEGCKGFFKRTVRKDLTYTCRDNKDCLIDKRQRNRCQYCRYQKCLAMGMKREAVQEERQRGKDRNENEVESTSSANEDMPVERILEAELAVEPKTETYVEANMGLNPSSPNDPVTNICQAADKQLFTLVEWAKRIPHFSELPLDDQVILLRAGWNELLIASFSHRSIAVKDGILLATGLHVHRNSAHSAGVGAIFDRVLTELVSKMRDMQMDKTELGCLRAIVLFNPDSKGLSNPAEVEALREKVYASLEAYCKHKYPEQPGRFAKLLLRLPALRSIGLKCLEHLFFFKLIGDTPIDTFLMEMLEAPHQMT
Outline: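 Compounds in DMSO were added to RXR-alpha-UAS-bla HEK 293T cells kept in 2% charcoal-stripped serum, and incubated 16 hr at 37 C with 5% CO2. Reporter signal came from a 2 hr B/G FRET substrate step.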

[3] = molecular target: Peroxisome proliferator-activated receptor delta (Homo sapiens) (UniProt Q03181); assay: qHTS assay to identify small molecule antagonists of the peroxisome proliferator-activated receptor delta (PPARd) signaling pathway (AID 743215; active means well fitted inhibition curve with a large enough effect in the signal ratio in the repeat runs, not every such curve was filed as active; inconclusive means weak or mixed curves, or effect the other way; inactive means no such curve, though single readings can be large or run the other way; the % refers to the signal ratio;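 further: cells stimulated with agonist L165041 at 300 nM final during compound exposure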); settings: HEK293H PPARd-UAS-bla, beta-lactamase FRET ratio, antagonist, 17 h; ratio activity, negative = inhibition: at 62 µM (top of the series) unless noted
Sequence of UniProt Q03181 (Q03181 whole entry, looked up): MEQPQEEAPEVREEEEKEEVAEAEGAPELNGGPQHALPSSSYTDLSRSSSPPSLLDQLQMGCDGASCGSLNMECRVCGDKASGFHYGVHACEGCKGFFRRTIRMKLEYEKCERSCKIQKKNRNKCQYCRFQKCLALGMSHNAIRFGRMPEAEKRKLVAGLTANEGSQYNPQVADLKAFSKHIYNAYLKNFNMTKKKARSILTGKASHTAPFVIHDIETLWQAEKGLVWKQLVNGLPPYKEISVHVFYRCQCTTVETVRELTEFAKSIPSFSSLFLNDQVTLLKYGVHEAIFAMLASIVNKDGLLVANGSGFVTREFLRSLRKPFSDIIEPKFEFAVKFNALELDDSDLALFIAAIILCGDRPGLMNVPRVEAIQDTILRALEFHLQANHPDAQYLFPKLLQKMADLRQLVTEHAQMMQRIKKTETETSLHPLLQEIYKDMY
Outline: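 Antagonist-mode beta-lactamase reporter screen: HEK293H cells with UAS-bla under PPARd control, stimulated by 300 nM L165041 (final) alongside test compound for 17 h at 37 C, then FRET fluorescence after 2 h substrate incubation.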

[4] = qHTS assay to identify small molecule agonists of the farnesoid-X-receptor (FXR) signaling pathway - cell viability counter screen (AID 743218; active means well fitted curve in the direction sought with a large enough effect in the repeat runs; inconclusive means weak or mixed curves; inactive means no such curve, though single readings can be large; an effect the other way counts as inactive or inconclusive; further: potency means the concentration at half of the fitted maximal effect; nearly all actives have a fitted effect of over 45% in size); settings: FXR-bla HEK293T viability, CellTiter-Glo luminescence, 16 h; viability change, negative = cytotoxic: at 62.6 µM (top of the series) unless noted
Outline: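 In GeneBLAzer FXR-UAS-bla HEK 293T cells, compounds act for 16 h at 37 C. Cell viability is then scored in the reporter wells by CellTiter-Glo, 30 min at RT, luminescence.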

[5] = qHTS assay to identify small molecule agonists of the AP-1 signaling pathway (AID 1159526); settings: ME-180 (cervical carcinoma) AP-1-bla reporter, beta-lactamase FRET ratio, 5 h; activation: at 76.8 µM (top of the series) unless noted
[6] = molecular target: Peroxisome proliferator-activated receptor delta (Homo sapiens) (UniProt Q03181); assay: qHTS assay to identify small molecule agonists of the peroxisome proliferator-activated receptor delta (PPARd) signaling pathway (AID 743212); settings: HEK293H PPARd-UAS-bla, beta-lactamase FRET ratio, 17 h; activation: at 62.6 µM (top of the series) unless noted
Outline: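 HEK293H PPARd-bla cells; 5 h preincubation 37 C/5% CO2; compound (DMSO) 37 C; LiveBLAzer B/G FRET substrate 2 h RT; fluorescence intensity.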

[7] = molecular target: Vitamin D3 receptor (Homo sapiens) (UniProt P11473); assay: qHTS assay to identify small molecule agonists of the vitamin D receptor (VDR) signaling pathway (AID 743222); settings: HEK293T VDR-UAS-bla, beta-lactamase FRET ratio, 16 h; activation: at 63.5 µM (top of the series) unless noted; further: potency means the concentration at half of the fitted maximal effect
Sequence of UniProt P11473 (P11473 whole entry, looked up): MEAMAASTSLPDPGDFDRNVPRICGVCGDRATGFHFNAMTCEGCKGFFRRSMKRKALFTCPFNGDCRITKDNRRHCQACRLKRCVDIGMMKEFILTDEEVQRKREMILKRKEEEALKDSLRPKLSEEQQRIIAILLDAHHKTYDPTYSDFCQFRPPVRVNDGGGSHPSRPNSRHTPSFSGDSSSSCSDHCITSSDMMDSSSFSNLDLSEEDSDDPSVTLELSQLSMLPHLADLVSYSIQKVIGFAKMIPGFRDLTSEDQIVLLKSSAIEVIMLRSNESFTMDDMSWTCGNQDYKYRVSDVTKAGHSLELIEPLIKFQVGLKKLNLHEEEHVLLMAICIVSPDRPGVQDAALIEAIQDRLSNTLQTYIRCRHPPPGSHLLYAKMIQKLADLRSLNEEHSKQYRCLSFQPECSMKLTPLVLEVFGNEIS
Outline: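 Agonist activity measured in VDR-bla reporter cells. Exposure 16 h, 37C, 5% CO2; detection by B/G FRET substrate, 2 h RT.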

[8] = qHTS assay to identify small molecule agonists of the RXR signaling pathway - cell viability counter screen (AID 1159529; active means well fitted curve in the direction sought with a large enough effect in the repeat runs; inconclusive means weak or mixed curves; inactive means no such curve, though single readings can be large; an effect the other way counts as inactive or inconclusive; further: nearly all actives have a fitted effect of over 50% in size; further: potency means the concentration at half of the fitted maximal effect)
Outline: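 Counter screen: CellTiter-Glo luminescence. Cells: RXR-alpha-UAS-bla HEK 293T. Medium: 2% charcoal-stripped FBS. Treatment: 16 h, 37 C. Reagent incubation: 30 min, RT.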

[9] = qHTS assay to identify small molecule antagonists of the peroxisome proliferator-activated receptor delta (PPARd) signaling pathway - cell viability counter screen (AID 743213; active means well fitted curve in the direction sought with a large enough effect in the repeat runs; inconclusive means weak or mixed curves; inactive means no such curve, though single readings can be large; an effect the other way counts as inactive or inconclusive; further: nearly all actives have a fitted effect of over 50% in size; further: potency means the concentration at half of the fitted maximal effect); settings: PPARd-bla HEK293H viability, CellTiter-Glo luminescence, 17 h; viability change, negative = cytotoxic: at 62 µM (top of the series) unless noted
Outline: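 CellTiter-Glo was added to PPARd-bla HEK293H wells following 17 h compound treatment in the presence of 300 nM L165041. Luminescence was recorded after 30 min at room temperature.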

[10] = qHTS assay to identify small molecule antagonists of the vitamin D receptor (VDR) signaling pathway - cell viability counter screen (AID 743225; active means well fitted curve in the direction sought with a large enough effect in the repeat runs; inconclusive means weak or mixed curves; inactive means no such curve, though single readings can be large; an effect the other way counts as inactive or inconclusive; further: nearly all actives have a fitted effect of over 50% in size; further: potency means the concentration at half of the fitted maximal effect); settings: VDR-bla HEK293T viability, CellTiter-Glo luminescence, 16 h; viability change, negative = cytotoxic: at 61 µM (top of the series) unless noted
Outline: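 Same-well multiplex: following 16 h treatment of HEK 293T cells carrying a UAS-driven beta-lactamase reporter with compound and agonist (3 nM final), and a 2 h FRET substrate step, CellTiter-Glo was added and luminescence read after 30 min.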

[11] = molecular target: Vitamin D3 receptor (Homo sapiens) (UniProt P11473); assay: qHTS assay to identify small molecule antagonists of the vitamin D receptor (VDR) signaling pathway (AID 743223; active means well fitted inhibition curve with a large enough effect in the signal ratio in the repeat runs, not every such curve was filed as active; inconclusive means weak or mixed curves, or effect the other way; inactive means no such curve, though single readings can be large or run the other way; the % refers to the signal ratio); settings: VDR-UAS-bla HEK293T, beta-lactamase FRET ratio, 16 h; activity change, negative = inhibition: at 61 µM (top of the series) unless noted
Outline: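 Quantitative HTS in VDR-bla reporter cells stimulated with 1alpha,25-dihydroxyvitamin D3, 3 nM final. Compound exposure 16 h, 37C, 5% CO2. Read-out: beta-lactamase FRET substrate fluorescence, 2 h RT.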

[12] = molecular target: Bile acid receptor (Homo sapiens) (UniProt Q96RI1); assay: qHTS assay to identify small molecule antagonists of the farnesoid-X-receptor (FXR) signaling pathway (AID 743217; active means well fitted inhibition curve with a large enough effect in the signal ratio in the repeat runs, not every such curve was filed as active; inconclusive means weak or mixed curves, or effect the other way; inactive means no such curve, though single readings can be large or run the other way; the % refers to the signal ratio); settings: HEK293T FXR-UAS-bla, beta-lactamase ratio, CDCA-stimulated, 16 h; activity change, negative = inhibition: at 62.6 µM (top of the series) unless noted
Sequence of UniProt Q96RI1 (Q96RI1 whole entry, looked up): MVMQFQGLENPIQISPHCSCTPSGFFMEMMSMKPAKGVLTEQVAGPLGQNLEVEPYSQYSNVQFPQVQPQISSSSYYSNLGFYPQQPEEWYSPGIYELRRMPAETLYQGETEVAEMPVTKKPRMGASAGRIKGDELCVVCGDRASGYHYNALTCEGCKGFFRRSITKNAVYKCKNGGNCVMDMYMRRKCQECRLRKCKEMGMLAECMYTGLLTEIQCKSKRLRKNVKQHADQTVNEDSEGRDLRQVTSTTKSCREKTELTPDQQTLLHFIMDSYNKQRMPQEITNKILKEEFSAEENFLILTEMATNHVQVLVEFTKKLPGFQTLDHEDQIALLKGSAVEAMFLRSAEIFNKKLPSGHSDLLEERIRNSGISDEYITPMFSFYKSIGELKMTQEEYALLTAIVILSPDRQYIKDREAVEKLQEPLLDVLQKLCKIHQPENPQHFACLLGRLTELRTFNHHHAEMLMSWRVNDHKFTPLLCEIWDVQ
Outline: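 Beta-lactamase reporter under UAS control in HEK 293T cells; compound exposure 16 h at 37 °C in the presence of chenodeoxycholic acid (50 uM final); signal from B/G FRET substrate after 2 h at room temperature.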

[13] = molecular target: Bile acid receptor (Homo sapiens) (UniProt Q96RI1); assay: qHTS assay to identify small molecule agonists of the farnesoid-X-receptor (FXR) signaling pathway (AID 743220; active means well fitted activation curve with a large enough effect in the signal ratio in the repeat runs, not every such curve was filed as active; inconclusive means weak or mixed curves, or effect the other way; the % refers to the signal ratio); settings: HEK293T FXR-UAS-bla, beta-lactamase FRET ratio, 16 h; activation: at 62.6 µM (top of the series) unless noted
Outline: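 Beta-lactamase reporter under UAS control in GeneBLAzer FXR HEK 293T cells (5000/well) measured with LiveBLAzer FRET substrate after 2 h at room temperature. Compound exposure lasted 16 h at 37C.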

[14] = qHTS assay to identify small molecule antagonists of the retinoid acid receptor (RAR) signaling pathway - cell viability counter screen (AID 1159551; active means well fitted curve in the direction sought with a large enough effect in the repeat runs; inconclusive means weak or mixed curves; inactive means no such curve, though single readings can be large; an effect the other way counts as inactive or inconclusive; further: nearly all actives have a fitted effect of over 35% in size)
Outline: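 Following overnight attachment, C3RL4 reporter cells received DMSO-dissolved compounds and then retinol (1 uM final). Six hours later at 37 C, ATP content was measured by CellTiter-Glo luminescence.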
Tags describe the fitted curve by direction and shape or compound fluorescence and quenching.

With C/C=C(\C)C(C)=O the Potency [1] was “inactive” and the Potency [2] was “inactive”.
With CCn1cc(C(=O)O)c(=O)c2ccc(C)nc21 the Potency [3] was “inactive”, the Potency [4] was inconclusive: 8.41 µM [rising, full curve, poor fit] and the Potency [1] was inconclusive: 848 nM [rising, partial curve, poor fit]. For the same compound, the Potency [2] was inconclusive: 8.71 µM [rising, full curve, poor fit] and the activation [2] was inconclusive: 16.3%.
With CC(=O)CC/C=C(\C)CC/C=C(\C)CC/C=C(\C)CCC=C(C)C the Potency [1] was “inactive” and the activation [2] was inconclusive: -28.5% [at 35.3 µM].
With CC1(C)NC(=O)N(c2ccc([N+](=O)[O-])c(C(F)(F)F)c2)C1=O the Potency [4] was inconclusive: 6.92 µM [rising, partial curve], the activation [1] was inconclusive: 3.48% and the Potency [5] was “inactive”.
In the case of CCCc1nc2c(C)cc(-c3nc4ccccc4n3C)cc2n1Cc1ccc(-c2ccccc2C(=O)O)cc1, the Potency [6] is reported as “inactive”, the Potency [7] is reported as inconclusive: 6.68 µM [rising, full curve] and the Potency [1] is reported as inconclusive: 21300 nM [activator]. The Potency [2] was inconclusive: 23.9 µM [rising, partial curve] and the Potency [8] was inconclusive: 16.9 µM [cytotoxic].
For COc1ccc([C@@H]2Sc3ccccc3N(CCN(C)C)C(=O)[C@@H]2OC(C)=O)cc1, the Potency [9] was inconclusive: 33.5 µM [cytotoxic, single point], the Potency [7] was “inactive” and the Potency [10] was inconclusive: 26.8 µM [cytotoxic, partial curve, poor fit]. For the same compound, the Potency [1] was “inactive”, the Potency [2] was inconclusive: 23.9 µM [rising, single point] and the Potency [8] was inconclusive: 15.1 µM [cytotoxic, partial curve].
For CC(C)(C)C(=O)OCOC(=O)[C@@H]1N2C(=O)[C@@H](NC(=O)[C@H](N)c3ccccc3)[C@H]2SC1(C)C, the Potency [3] was “inactive”, the Potency [7] was “inactive” and the Potency [11] was “inactive”. For the same compound, the Potency [1] was inconclusive: 477 nM [falling, full curve, poor fit] and the activation [5] was inconclusive: -7.52% [at 35.3 µM].
For C=CCN(CC=C)CC=C, the ratio activity, negative = inhibition [3] was inconclusive: -0.029%, the Potency [7] was “inactive” and the activity change, negative = inhibition [11] was inconclusive: 17.8%. For the same compound, the Potency [1] was “inactive” and the Potency [5] was “inactive”.
In the case of Cc1ncc(CSSCc2cnc(C)c(O)c2CO)c(CO)c1O, the Potency [1] is reported as “inactive” and the Potency [2] is reported as “inactive”.
With NCCOCCO the Potency [6] was “inactive”, the Potency [12] was “inactive” and the Potency [13] was “inactive”. The Potency [11] was “inactive”, the Potency [10] was “inactive” and the Potency [1] was inconclusive: 61900 nM [activator, single point]. The Potency [2] was “inactive” and the Potency [8] was “inactive”.
For NC[C@H]1O[C@H](O[C@H]2[C@H](O[C@@H]3O[C@H](CO)[C@@H](O)[C@H]3O)C(O)[C@H](N)C[C@@H]2N)[C@H](N)[C@@H](O)[C@@H]1O (stereo not given in full), the Potency [1] was inconclusive: 2190 nM [falling, partial curve, poor fit], the activation [2] was inactive: 5.85% [at 6.98 µM] and the activity change, negative = cytotoxicity [8] was inactive: 3% [at 6.97 µM]. The activity change, negative = cytotoxicity [14] was inactive: -0.449% [at 8.39 µM].
With CCOC(=O)[C@H](CCc1ccccc1)N[C@@H](C)C(=O)N1C(=O)N(C)C[C@H]1C(=O)O the Potency [1] was “inactive” and the Potency [2] was “inactive”.
For c1ccc2c(c1)ccc1ncccc12, the activation [6] was inconclusive: 6.83% and inconclusive: 0.192%, the viability change, negative = cytotoxic [9] was inconclusive: -3.74% [cytotoxic] and the Potency [3] was “inactive”. The Potency [10] was inconclusive: 13.7 µM [cytotoxic, partial curve, poor fit] and inactive, the activation [1] was inconclusive: 6.55% and the activation [2] was inconclusive: 11.2% and inconclusive: 5.79%. The Potency [8] was “inactive”.
For N[C@H]1C(O)O[C@H](CO)[C@@H](O)[C@@H]1O (stereo not given in full), the Potency [4] was inconclusive: 18.8 µM [rising, partial curve], the Potency [11] was “inactive” and the Potency [1] was “inactive”. For the same compound, the Potency [5] was “inactive”.
In the case of CC(C)c1ccc(C(=O)N=C(N)N)cc1S(C)(=O)=O, the Potency [1] is reported as inconclusive: 344 nM [falling, full curve, poor fit] and the Potency [2] is reported as inconclusive: 2.43 µM [activator, full curve, poor fit].
For CC(=O)N(CC(O)CO)c1c(I)c(C(=O)NCCO)c(I)c(C(=O)NCC(O)CO)c1I (stereo not given), the Potency [1] was “inactive” and the Potency [2] was “inactive”.
With CC(C)(C)N the Potency [1] was “inactive” and the activation [2] was inconclusive: -19.4%.
In the case of CCOC(=O)C1=C(C)NC(C)=C(C(=O)OC)C1c1cccc([N+](=O)[O-])c1 (stereo not given), the Potency [1] is reported as “inactive”, the Potency [2] is reported as inconclusive: 6.01 µM [activator, full curve, poor fit] and the Potency [8] is reported as inconclusive: 19 µM [rising, partial curve]. The Potency [14] was “inactive”.
